In PubChem BioAssay AID1460 (National Center for Advancing Translational Sciences (NCATS), 2008):
“And” between values parts separate entries of the source, which are not always exact repeats. Identical values can stand only once. Hit rate of the full screen: of about 270,000 compounds, about 5,800 (2.1%) were called active. The shares of active, inactive and inconclusive entries below differ from those in the screen. The call rests on the fitted dose curve; in most records, active means well fitted inhibition curve with a large enough effect; inconclusive means small, poorly fitted or top-dose-only effect; inactive means flat fitted curve, though single readings scatter. Where the call is inconclusive, the potency comes from a doubtful curve fit.

These compounds were tested against Microtubule-associated protein tau (Homo sapiens) (UniProt P10636) (assay: qHTS for Inhibitors of Tau Fibril Formation, Thioflavin T Binding). Settings: recombinant tau K18 P301L (four-repeat tau fragment), heparin-induced fibrillization, ThT fluorescence; series mostly up to 57.4 µM; activity, negative = inhibition: at the top concentration.
Procedure, shortened: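 Aggregation was driven by heparin (20 uM final) acting on recombinant tau […] bearing P301L in 100 mM sodium acetate pH 7; fibrils were detected with Thioflavin T.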
Further: nearly all actives have a fitted effect of over 55% in size.
On the % scale 0 is the no-effect control and ±100 the full control effect; potency means the concentration at half of the fitted maximal effect; tags describe the fitted curve by direction and shape.

Sequence of UniProt P10636 (P10636 whole entry, looked up, the tested form may be a part): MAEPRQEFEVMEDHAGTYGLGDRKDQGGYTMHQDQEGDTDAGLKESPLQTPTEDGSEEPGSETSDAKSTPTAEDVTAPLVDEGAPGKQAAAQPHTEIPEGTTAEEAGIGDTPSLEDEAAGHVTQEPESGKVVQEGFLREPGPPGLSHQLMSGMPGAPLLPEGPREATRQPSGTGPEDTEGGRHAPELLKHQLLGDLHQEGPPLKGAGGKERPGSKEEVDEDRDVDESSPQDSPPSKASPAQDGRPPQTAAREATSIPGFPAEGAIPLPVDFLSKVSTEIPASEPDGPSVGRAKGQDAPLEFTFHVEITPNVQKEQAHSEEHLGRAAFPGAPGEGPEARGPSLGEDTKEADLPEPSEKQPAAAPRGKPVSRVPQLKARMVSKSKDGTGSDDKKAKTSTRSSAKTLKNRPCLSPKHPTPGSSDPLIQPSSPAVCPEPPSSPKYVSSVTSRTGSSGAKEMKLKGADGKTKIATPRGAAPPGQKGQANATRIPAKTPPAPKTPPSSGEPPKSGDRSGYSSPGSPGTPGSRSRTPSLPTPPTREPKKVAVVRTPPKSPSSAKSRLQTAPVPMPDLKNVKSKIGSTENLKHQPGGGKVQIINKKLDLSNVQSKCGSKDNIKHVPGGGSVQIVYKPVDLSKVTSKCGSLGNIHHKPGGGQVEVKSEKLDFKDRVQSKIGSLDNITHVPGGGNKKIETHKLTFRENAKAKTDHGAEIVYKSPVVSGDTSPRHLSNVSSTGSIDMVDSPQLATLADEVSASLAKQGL

Compound	Potency	activity, negative = inhibition
COc1ccccc1NC(=O)N1CCc2[nH]c3ccc(F)cc3c2C1	inconclusive: 0.141 µM [inhibitor, full curve, poor fit]	–
Cn1c(SCC(=O)c2cc(Cl)c(Cl)s2)nnc1-c1ccco1	inconclusive: 15.8 µM [inhibitor, partial curve]	–
CC(=O)C1=C(c2ccc(F)cc2)N(C(C)=O)n2c(nnc2C2CCCCC2)S1	inconclusive: 28.2 µM [inhibitor, partial curve]	–
CCOC(=O)C1CCCN(c2c(N3CCc4ccccc4C3)c(=O)c2=O)C1 (stereo not given)	–	inactive: -7.71%
COc1ccccc1NC1=C(N2CCCCC2)C(=O)c2ccccc2C1=O	active: 12.6 µM	–
C=CCn1c(O)c(/C=C2\C=NN=C2c2ccccc2)sc1=S	inconclusive: 25.1 µM [inhibitor, partial curve, poor fit]	–
O=S(=O)(Nc1nc2ccccc2nc1N1CCc2ccccc2C1)c1ccc(Cl)cc1	inconclusive: 15.8 µM [inhibitor, partial curve]	–
CCc1ccc(NS(=O)(=O)c2ccc(-c3cc(C)no3)cc2)cc1	–	inactive: 6.43%
COc1cccc(Oc2cncnc2-c2ccc(OC)cc2O)c1	inconclusive: 39.8 µM [inhibitor, single point]	–
Cc1ccccc1N=Cc1cc2c(cc1[N+](=O)[O-])OCO2	–	inactive: -11%
O=C(NCCc1ccc(Cl)cc1)c1ccc2c(c1)nc1n2CCOC1	inconclusive: 7.08 µM [inhibitor, full curve]	–
Cc1c(N=c2scc(-c3ccccc3)n2C)c(=O)n(-c2ccccc2)n1C	–	inactive: -11.1%
CCOC(=O)Cc1ncccc1C(=O)Nc1ccc(Oc2ccccc2)cc1	inconclusive: 12.6 µM [inhibitor, partial curve]	–
Clc1ccc(-c2nnc(NCc3ccccc3)c3ccccc23)cc1	–	inactive: 1.59%
Cc1ccccc1C(=O)OCc1cc(=O)n2nc(C3CCCCC3)sc2n1	inconclusive: 0.631 µM [inhibitor, full curve]	–
O=C(CN1C(=O)C2(SCC(=O)N2c2cccc(F)c2)c2ccccc21)NCCc1ccccc1 (stereo not given)	–	inactive: 3.03%
O=C(NCCCCc1ccccc1)c1ccc(Br)o1	–	inactive: 1.06%
O=C(Oc1ccc(Cl)c2cccnc12)C12CC3CC(CC(C3)C1)C2	–	inactive: -11.6%
N=c1n(CCN2CCOCC2)c2ccccc2n1CC(=O)c1ccc(Cl)c(Cl)c1	–	inactive: -11.6%
N=C1/C(=C\c2ccc(SCc3ccco3)o2)C(=O)N=C2SC=NN12	active: 6.31 µM	–
CC(C)COCC(CN(Cc1ccccc1)c1ccccc1)N1CCCC1 (stereo not given)	inconclusive: 28.2 µM [inhibitor, partial curve] and inconclusive: 39.8 µM [inhibitor, single point] and inconclusive: 15.8 µM [inhibitor, partial curve]	–
CCCNC(=O)CSc1c(CCC)cnc2c1c(=O)n(C)c(=O)n2C	–	inactive: -2.97%
Cc1ccc(/C=c2\sc3nc(-c4ccccc4Br)nn3c2=O)o1	active: 28.2 µM	–

Compound	Potency	activity, negative = inhibition
O/N=C\c1ccc(-c2ccccc2)o1	–	inactive: -2.79%
CCOc1ccc(-c2nnc(-c3ccncc3)o2)cc1	–	inactive: -11.4%
CSc1ccccc1NC(=O)Nc1cccc(Cl)c1Cl	inconclusive: 2.51 µM [inhibitor, full curve]	–
O=C(c1cc(-c2ccc(F)cc2)on1)N1CCCC1	inconclusive: 31.6 µM [inhibitor, partial curve]	–
Cn1nc(C(C)(C)C)cc1C(=O)Nc1nc2c(s1)C(=O)CC(C)(C)C2	–	inactive: -17.8%
O=C(O/N=C\c1ccc(N2CCCCC2)c([N+](=O)[O-])c1)c1cccc(Cl)c1	inconclusive: 6.31 µM [inhibitor, partial curve]	–
CCOC(=O)c1ccccc1NC(=O)CSc1nnc(Cc2cccn2C)n1-c1ccc(F)cc1	inconclusive: 17.8 µM [inhibitor, partial curve]	–
Cc1ccc(C(=O)NCCN2C3=NC[C@@H](Cc4ccccc4)N3C[C@H]2Cc2ccc(O)cc2)cc1Br	inconclusive: 28.2 µM [inhibitor, single point]	–
CC(C)COP(=O)(c1ccc(N(C)C)cc1)C(O)c1ccncc1 (stereo not given)	–	inactive: -9.57%
Cc1ccc(NC(=O)c2ccc(NCCCN3CCC(C)CC3)c([N+](=O)[O-])c2)cc1F	inconclusive: 7.08 µM [inhibitor, full curve]	–
O=[N+]([O-])c1ccccc1/C=C/C=N/N1CCCCC1	inconclusive: 11.2 µM [inhibitor, partial curve, poor fit]	–
COc1ccccc1C(=O)Nc1ccc2c(c1)OCO2	inconclusive: 15.8 µM [inhibitor, partial curve, poor fit]	–
CCN1CSC(=S)N(Cc2ccc(OC)cc2)C1	inconclusive: 0.158 µM [inhibitor, partial curve, poor fit]	–
CC(C)(C)C(=O)Nc1ccc(-c2cn3ccsc3n2)cc1	inconclusive: 28.2 µM [inhibitor, partial curve]	–
CC(=O)c1cccc(NC(=O)Nc2ccc(C(=O)N3CCOCC3)cc2)c1	–	inactive: 10.3%
CN1C(=O)C2(Oc3ccccc3C3CC(c4ccccc4)=NN32)c2ccccc21 (stereo not given)	inconclusive: 28.2 µM [inhibitor, partial curve]	–
COc1cc(OC)c(OC)cc1/C=C/C(=O)c1ccc(NS(=O)(=O)c2ccc(C)cc2)cc1	inconclusive: 10 µM [inhibitor, partial curve]	–
O=C(NC1CCc2ccccc21)C1CCN(S(=O)(=O)c2ccc(Cl)cc2)CC1 (stereo not given)	–	inactive: 7.17%
O=C1CCCN1CCCN=c1c([N+](=O)[O-])nn(-c2ccc(Cl)cc2)n1O	inconclusive: 17.8 µM [inhibitor, partial curve]	–
Cc1c(Nc2cc(N3CCOCC3)c3nonc3c2[N+](=O)[O-])c(=O)n(-c2ccccc2)n1C	–	inactive: -2.9%
Cc1ccccc1C(=O)NC(=S)Nc1ccc(Oc2ccc(Cl)cc2)cc1	inconclusive: 31.6 µM [inhibitor, partial curve]	–
COc1ccc(C(=O)Nc2nnc(-c3cccs3)s2)cc1	inconclusive: 0.224 µM [inhibitor, full curve, poor fit]	–
